The other results are listed elsewhere or left out.
Legend:
Assay in all cases: glycan array binding signal (z-score within array); higher = stronger binding
Conditions in all cases: glycan notation: IUPAC condensed, linker removed
[1] = biological target: Neu5Ac(a2-3)Gal(b1-3)GalNAc(b1-4)[Neu5Ac(a2-8)Neu5Ac(a2-3)]Gal(b1-4)Glc
Method in brief: (§1)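 Arrays were curated from the Consortium for Functional Glycomics database, 3228 in total, and kept only where the protein sequence was available. Binding is expressed as a within-array Z-score. This score was averaged across arrays of the same protein sequence at different concentrations or buffers and across linkers, and negative values can be read as non-binding.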

[2] = biological target: Neu5Ac(a2-3)Gal(b1-3)GalNAc6S
Method in brief: as §1

[3] = biological target: Neu5Ac(a2-3)Gal(b1-3)GlcNAc
Method in brief: as §1

[4] = biological target: Neu5Ac(a2-3)Gal(b1-3)GlcNAc(b1-2)Man(a1-3)[Neu5Ac(a2-3)Gal(b1-3)GlcNAc(b1-2)Man(a1-6)]Man(b1-4)GlcNAc(b1-4)GlcNAc
Method in brief: as §1

[5] = biological target: Neu5Ac(a2-3)Gal(b1-3)GlcNAc(b1-3)Gal(b1-3)GlcNAc
Method in brief: as §1

[6] = biological target: Neu5Ac(a2-3)Gal(b1-3)GlcNAc(b1-3)Gal(b1-4)GlcNAc
Method in brief: as §1

[7] = biological target: Neu5Ac(a2-3)Gal(b1-3)GlcNAc(b1-3)GalNAc
Method in brief: as §1

[8] = biological target: Neu5Ac(a2-3)Gal(b1-3)GlcNAc6S
Method in brief: as §1

[9] = biological target: Neu5Ac(a2-3)Gal(b1-3)[Fuc(a1-4)]GlcNAc
Method in brief: as §1

[10] = biological target: Neu5Ac(a2-3)Gal(b1-3)[Fuc(a1-4)]GlcNAc(b1-3)Gal(b1-3)[Fuc(a1-4)]GlcNAc
Method in brief: as §1

[11] = biological target: Neu5Ac(a2-3)Gal(b1-3)[Fuc(a1-4)]GlcNAc(b1-3)Gal(b1-4)[Fuc(a1-3)]GlcNAc
Method in brief: as §1

[12] = biological target: Neu5Ac(a2-3)Gal(b1-3)[Neu5Ac(a2-3)Gal(b1-4)]GlcNAc
Method in brief: as §1

[13] = biological target: Neu5Ac(a2-3)Gal(b1-3)[Neu5Ac(a2-6)]GalNAc
Method in brief: as §1

[14] = biological target: Neu5Ac(a2-3)Gal(b1-4)Glc
Method in brief: as §1

[15] = biological target: Neu5Ac(a2-3)Gal(b1-4)GlcNAc
Method in brief: as §1

[16] = biological target: Neu5Ac(a2-3)Gal(b1-4)GlcNAc(b1-2)Man(a1-3)[GlcNAc(b1-2)Man(b1-4)GlcNAc(b1-2)Man(a1-6)]Man(b1-4)GlcNAc(b1-4)GlcNAc
Method in brief: as §1

[17] = biological target: Neu5Ac(a2-3)Gal(b1-4)GlcNAc(b1-2)Man(a1-3)[Neu5Ac(a2-6)Gal(b1-4)GlcNAc(b1-2)Man(a1-6)]Man(b1-4)GlcNAc(b1-4)GlcNAc
Method in brief: as §1

[18] = biological target: Neu5Ac(a2-3)Gal(b1-4)GlcNAc(b1-3)Gal
Method in brief: as §1

[19] = biological target: Neu5Ac(a2-3)Gal(b1-4)GlcNAc(b1-3)Gal(b1-3)GlcNAc
Method in brief: as §1

[20] = biological target: Neu5Ac(a2-3)Gal(b1-4)GlcNAc(b1-3)Gal(b1-4)GlcNAc
Method in brief: as §1

[21] = biological target: Neu5Ac(a2-3)Gal(b1-4)GlcNAc(b1-3)Gal(b1-4)GlcNAc(b1-3)Gal(b1-4)GlcNAc
Method in brief: as §1

[22] = biological target: Neu5Ac(a2-3)Gal(b1-4)GlcNAc(b1-3)Gal(b1-4)[Fuc(a1-3)]GlcNAc
Method in brief: as §1

[23] = biological target: Neu5Ac(a2-3)Gal(b1-4)GlcNAc(b1-3)GalNAc
Method in brief: as §1

[24] = biological target: Neu5Ac(a2-3)Gal(b1-4)GlcNAc(b1-6)[Gal(b1-3)]GalNAc
Method in brief: as §1

[25] = biological target: Neu5Ac(a2-3)Gal(b1-4)GlcNAc(b1-6)[Neu5Ac(a2-3)Gal(b1-3)]GalNAc
Method in brief: as §1

[26] = biological target: Neu5Ac(a2-3)Gal(b1-4)GlcNAc6S
Method in brief: as §1

[27] = biological target: Neu5Ac(a2-3)Gal(b1-4)[Fuc(a1-3)]GlcNAc
Method in brief: as §1

[28] = biological target: Neu5Ac(a2-3)Gal(b1-4)[Fuc(a1-3)]GlcNAc(b1-3)Gal
Method in brief: as §1

[29] = biological target: Neu5Ac(a2-3)Gal(b1-4)[Fuc(a1-3)]GlcNAc(b1-3)Gal(b1-4)GlcNAc
Method in brief: as §1

[30] = biological target: Neu5Ac(a2-3)Gal(b1-4)[Fuc(a1-3)]GlcNAc(b1-3)Gal(b1-4)[Fuc(a1-3)]GlcNAc(b1-3)Gal(b1-4)[Fuc(a1-3)]GlcNAc
Method in brief: as §1

[31] = biological target: Neu5Ac(a2-3)Gal(b1-4)[Fuc(a1-3)]GlcNAc(b1-3)GalNAc
Method in brief: as §1

[32] = biological target: Neu5Ac(a2-3)Gal(b1-4)[Fuc(a1-3)]GlcNAc(b1-6)[Gal(b1-3)]GalNAc
Method in brief: as §1

[33] = biological target: Neu5Ac(a2-3)Gal(b1-4)[Fuc(a1-3)]GlcNAc(b1-6)[Neu5Ac(a2-3)Gal(b1-3)]GalNAc
Method in brief: as §1

[34] = biological target: Neu5Ac(a2-3)Gal(b1-4)[Fuc(a1-3)]GlcNAc6S
Method in brief: as §1

[35] = biological target: Neu5Ac(a2-3)Gal6S(b1-4)GlcNAc
Method in brief: as §1

[36] = biological target: Neu5Ac(a2-3)Gal6S(b1-4)[Fuc(a1-3)]GlcNAc
Method in brief: as §1

[37] = biological target: Neu5Ac(a2-3)GalNAc
Method in brief: as §1

[38] = biological target: Neu5Ac(a2-3)GalNAc(b1-4)GlcNAc
Method in brief: as §1

[39] = biological target: Neu5Ac(a2-3)[GalNAc(b1-4)]Gal(b1-4)Glc
Method in brief: as §1

[40] = biological target: Neu5Ac(a2-3)[GalNAc(b1-4)]Gal(b1-4)GlcNAc
Method in brief: as §1

[41] = biological target: Neu5Ac(a2-3)[GalNAc(b1-4)]Gal(b1-4)GlcNAc(b1-3)GalNAc
Method in brief: as §1

[42] = biological target: Neu5Ac(a2-3)[Neu5Ac(a2-6)]GalNAc
Method in brief: as §1

[43] = biological target: Neu5Ac(a2-6)Gal
Method in brief: as §1

B1: Tectonin 2 (Laccaria bicolor) (protein)
chain: MPWKGISGSLSRISAGSVTNVWGVNAANNIYRYTGDDAKPWVQIPGALTDIGAAADGTVWGVNAAGNIYRYVWDSNHWTQIKGALKRISAGSRTNVWGVNAGGAIYRYTGDDANPWVQIPGVLSDIGAGADGTVWGVNAAGEIYRYTGDQGDPNHWVKIPGALSAISAGIKTNVWGVNSANNIYTSTGDDKNPWLGIGGSLVDIGAGTDGVVWGVNAGGGIYRWIRD
glycan array binding signal (z-score) [1]: 0.34 | glycan array binding signal (z-score) [2]: 0.532 | glycan array binding signal (z-score) [3]: -0.123 | glycan array binding signal (z-score) [4]: -0.194 | glycan array binding signal (z-score) [5]: -0.469 | glycan array binding signal (z-score) [6]: -0.039 | glycan array binding signal (z-score) [7]: 0.64 | glycan array binding signal (z-score) [8]: -0.427 | glycan array binding signal (z-score) [9]: -0.236 | glycan array binding signal (z-score) [10]: 0.719 | glycan array binding signal (z-score) [11]: -0.208 | glycan array binding signal (z-score) [12]: 0.892 | glycan array binding signal (z-score) [13]: 2.15 | glycan array binding signal (z-score) [14]: -0.206 | glycan array binding signal (z-score) [15]: 0.036 | glycan array binding signal (z-score) [16]: 0.55 | glycan array binding signal (z-score) [17]: 2.09 | glycan array binding signal (z-score) [18]: -0.218 | glycan array binding signal (z-score) [19]: 0.485 | glycan array binding signal (z-score) [20]: 0.692 | glycan array binding signal (z-score) [21]: 0.567 | glycan array binding signal (z-score) [22]: 2.47 | glycan array binding signal (z-score) [23]: -0.133 | glycan array binding signal (z-score) [24]: -0.151 | glycan array binding signal (z-score) [25]: -0.009 | glycan array binding signal (z-score) [26]: -0.071 | glycan array binding signal (z-score) [27]: 0.064 | glycan array binding signal (z-score) [28]: 0.824 | glycan array binding signal (z-score) [29]: 1.71 | glycan array binding signal (z-score) [30]: -0.317 | glycan array binding signal (z-score) [31]: 2.62 | glycan array binding signal (z-score) [32]: 0.19 | glycan array binding signal (z-score) [33]: -0.084 | glycan array binding signal (z-score) [34]: 0.515 | glycan array binding signal (z-score) [35]: 1.38 | glycan array binding signal (z-score) [36]: 1.1 | glycan array binding signal (z-score) [37]: 0.375 | glycan array binding signal (z-score) [38]: -0.183 | glycan array binding signal (z-score) [39]: 0.067 | glycan array binding signal (z-score) [40]: 0.561 | glycan array binding signal (z-score) [41]: -0.012 | glycan array binding signal (z-score) [42]: -0.053 | glycan array binding signal (z-score) [43]: -0.183

Reference: the supplement of paper PMC8728848
